Screen size: about 45,000 compounds; about 200 (0.44%) were called active. Roughly 7% stayed inconclusive and do not appear here. The call rests on the fitted dose curve; in most records, active means well fitted activation curve with a large enough effect; inconclusive means small, poorly fitted or top-dose-only effect; inactive means no such curve, though single readings can be large or run the other way. This is one part of the list.
Assay: qHTS of TDP-43 Inhibitors: NCGC Sytravon Library Screen; further: 0% is about no effect; nearly all actives have a fitted effect of over 55% in size
Conditions: yeast TDP-43 toxicity rescue, BacTiter-Glo growth, 24 h; series mostly up to 46.1 µM; growth rescue (activation): at the top concentration
How it was run: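 TDP-43-expressing yeast, pregrown in raffinose, seeded at OD600 0.02 in galactose medium with compound for 24 hr at 30 deg C. Growth read by BacTiter-Glo luminescence, so rescue of toxicity appears as activation.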

Structure (SMILES)	growth rescue (activation)
COc1cc(/C=N/NS(=O)(=O)c2ccc(C)cc2)ccc1OCc1ccc(C(=O)O)cc1	inactive: 2.09%
O=C(CSc1n[nH]c(-c2ccccc2Br)n1)NCCN1C(=O)CSC1=O	inactive: 7.64%
CC(C)OCCCn1c(=S)[nH]c2ncccc2c1=O	inactive: 27.6%
O=C(CSc1nnc(NC(=O)C2CC2)s1)Nc1ccccc1C(F)(F)F	inactive: 10.4%
CCc1nn(CCCC(=O)NCc2cc(Br)ccc2OC)c(=O)c2cc3occc3n12	inactive: 7.65%
CCOc1ccc(OCc2ccc(C(=O)N/N=C(\C)c3ccccn3)cc2)cc1	inactive: 2.93%
Cc1ccc(C(=O)NNC(=O)Cn2nnc3ccccc32)cc1	inactive: 12.6%
Cc1nc(N2CCc3ccccc3C2)[nH]c(=O)c1Cc1ccccc1	inactive: 5.57%
COC(=O)Nc1ccc(S(=O)(=O)N2CCC(C(=O)NCc3ccc4c(c3)OCO4)CC2)cc1	inactive: -4.69%
COc1ccc(C(CC(=O)Nc2ncccc2C)N2Cc3ccccc3C2=O)cc1 (stereo not drawn)	inactive: -10.2%
O=C1/C(=C/c2ccc(O)cc2)COc2ccccc21	inactive: 2.18%
Cc1ccnc(NC(=O)CCC(=O)N(CC(=O)NC(C)(C)C)c2ccc3c(c2)OCCO3)c1	inactive: -8.56%
COc1ccc(C(=O)COc2ccc(F)cc2)c(O)c1	inactive: -2.48%
CCCOc1cccc(C(=O)N2CCN(C(=O)C3CCCO3)CC2)c1 (stereo not drawn)	inactive: 6.56%
O=C1CN(C(=O)CSc2nc3ccccc3n2CCc2ccccc2)c2ccccc2N1	inactive: -7.55%
Cc1cc(C)n(CC(=O)c2cccc(N)c2)n1	inactive: 12.1%
O=C(Nc1cccc2nsnc12)c1cccnc1	inactive: -13.6%
COCCc1ccc(OC2(C)CCN(Cc3cccn3-c3nccs3)C2)cc1 (stereo not drawn)	inactive: -4.72%
COCCCN=C1NN=C(c2cc(C)n(-c3ccccc3)c2C)CS1	inactive: 1.54%
Cc1csc(NC(=O)c2ccc3nc[nH]c3c2)n1	inactive: -1.43%
CC1(C)Oc2ccc(C(=O)Nc3ccccc3F)cc2N(CC(=O)N2CCOCC2)C1=O	inactive: 8.55%
CCCSc1ncc(Cl)c(C(=O)Nc2scc(-c3ccc(C)cc3)c2C(=O)OCC)n1	inactive: 7.26%

Structure (SMILES)	growth rescue (activation)
CCOC(=O)CCC(NC(=O)CCCCC(=O)NC(CCC(=O)OCC)C(=O)OCC)C(=O)OCC (stereo not drawn)	inactive: 22.7%
CN(C)c1nc(-c2cccnc2)nc(-c2ccc(Cl)cc2)c1C#N	inactive: 7.56%
CC(=O)c1ccc(Nc2nc(C(N)C(C)C)cs2)cc1 (stereo not drawn)	inactive: 7.85%
COC(=O)c1c(NC(=O)C(C)C)sc(C(=O)N2CCOCC2)c1C	inactive: -9.21%
CCCCN(C)C(=O)c1ccc2c(c1)N(Cc1ccc(F)cc1)C(=O)c1ccccc1S2(=O)=O	inactive: 20.6%
O=[N+]([O-])c1cccc(S(=O)(=O)N2CCN(S(=O)(=O)N3CCCCCC3)CC2)c1	inactive: 18.8%
CCOCc1c(C(=O)NC2=Nc3ccccc3NC(CC)=C2C(=O)OCC)oc2ccccc12	inactive: 10.4%
Cc1oc(-c2cccs2)nc1CN1CCN(CC(C)C)C(CCO)C1 (stereo not drawn)	inactive: 3.32%
CCOc1ccc(S(=O)(=O)N2CCC(C(=O)N3CCCCCC3)CC2)cc1Cl	inactive: 35.6%
CCN(CCn1cccn1)C(=O)CCc1nnc(CCc2ccccc2OC)o1	inactive: -4.63%
COc1cccc(C(=O)OCCCN(C)C)c1	inactive: 9.91%
COc1ccc(C2c3c(ncn(CCCO)c3=N)Oc3ccc4ccccc4c32)cc1 (stereo not drawn)	inactive: 4.82%
OC(CNCCc1ccccc1)COc1ccc(OCC(O)CNCCc2ccccc2)cc1 (stereo not drawn)	inactive: 6.52%
CCNC(=O)COc1ccc(F)cc1C(=O)c1cnn(-c2ccccc2)c1	inactive: -0.11%
CCN(CC(=O)NCc1cccs1)C(=O)CCOc1ccccc1	inactive: -0.0675%
COCCN(C(=O)CSc1nnc(-c2ccccc2C)n1C)c1c(N)n(Cc2ccccc2)c(=O)[nH]c1=O	inactive: 10.9%
Cc1c(-c2ccccc2)nc2ccccc2c1C(=O)OCC(=O)Nc1ncc(C(F)(F)F)cc1Cl	inactive: 5.36%
O=C(CC1SC(N2CCCCC2)=NC1=O)Nc1cccc(C(=O)NCc2ccccc2)c1 (stereo not drawn)	inactive: 3.12%
Cc1c(C(=O)Nc2ccccc2)sc2nc[nH]c(=O)c12	inactive: 17.9%
Cc1ccc(NC(=S)N(Cc2ccco2)C2CCN(C(C)C)CC2)cc1	inactive: -23.9%
COC(=O)c1ccccc1NC(=O)COC(=O)c1ccccc1N=Nc1ccc(N(C)C)cc1	inactive: -14.8%
CC1(C(=O)NC2CCCCC2)Cc2ccccc2C(=O)N1Cc1ccc(F)cc1 (stereo not drawn)	inactive: 1.35%

Structure (SMILES)	growth rescue (activation)
CN(C)S(=O)(=O)c1ccc(NC(=O)COc2ncnc3c2cnn3-c2ccccc2)cc1	inactive: 7.76%
Cc1cc(N)n(-c2ccc(C)c(C)c2)n1	inactive: -4.3%
CCOC(=O)N1CCN(C(=O)COc2ccc(Cl)c(C)c2)CC1	inactive: 12.5%
Cc1cc(S(=O)(=O)NCC(C)C)ccc1OCC(=O)NCc1ccco1	inactive: 10.5%
O=C(CCc1ccccc1)NC(=S)Nc1ccc2c(c1)C(=O)OC2	inactive: 6.79%
CN(C(=O)CSc1nc2c(c(=O)[nH]1)CCC2)c1ccccc1	inactive: 0.89%
O=C(c1ccc([N+](=O)[O-])cc1)N1CCN(C(=O)c2cccs2)CC1	inactive: -0.729%
O=C(COc1ccc(Cl)cc1)NCc1nnc(SCC(=O)NC2CCCC2)o1	inactive: -4.93%
CCC(C(=O)OCC(=O)Nc1ccccc1-c1ccccc1)c1ccccc1 (stereo not drawn)	inactive: 8.96%
O=[N+]([O-])c1cccc(-c2nnc3n2CCCCC3)c1	inactive: -13.9%
Oc1ccc(Br)cc1C=Nc1cccn2cc(-c3ccccc3)nc12	inactive: -9.13%
NC(=O)CSc1nnc(-c2cnccn2)n1-c1ccccc1	inactive: -7.79%
O=C(COC(=O)CCC(=O)c1ccc(Cl)cc1)NCc1ccc(F)cc1	inactive: 3.14%
Cc1ccc(O)c(CCc2ccc(O)cc2)n1	inactive: -17%
O=C(NCCN1CCOCC1)c1cc(-c2cccc(O)c2)on1	inactive: 8.33%
COc1cc(CNCc2ccccn2)ccc1OCc1ccc(Cl)cc1	inactive: 3.22%
CC(C)Nc1nnc(SCc2cc(=O)n3ccsc3n2)s1	inactive: 15.7%
CC(C)CCn1c(=O)c(C(=O)N/N=C/c2cccc(F)c2)c(O)c2ccccc21	inactive: -15.9%
COCCNC(=O)C(=O)NCCN1CCNCC1	inactive: 5.8%
Cc1nc(C(F)(F)F)ccc1C(=O)N1CCC1(C)C(=O)NS(=O)(=O)c1ccccc1 (stereo not drawn)	inactive: 14%
Cc1ccc(NC(=O)c2ccc(S(=O)(=O)NCc3cccnc3)cc2)cc1C	inactive: 12.7%
CCCNC(=O)c1cc(C2CCCN(C(=O)C3CCCCC3)C2)on1 (stereo not drawn)	inactive: 14.8%

Structure (SMILES)	growth rescue (activation)
COc1ccc(NC(=O)N2CCCC(C(=O)Nc3cccc(C)c3C)C2)cc1 (stereo not drawn)	inactive: -6.88%
CC(=O)c1cccc(S(=O)(=O)NCC(C)(C)N2CCOCC2)c1	inactive: 1.29%
O=C(NCCNC(=O)c1ccco1)c1ccco1	inactive: 13.8%
O=C1CCCc2oc3c(cc(NS(=O)(=O)c4ccc5c6c(cccc46)C(=O)N5)c4ccccc43)c21	inactive: 22.3%
O=c1cc(CN2CCCc3ccccc32)nc2sccn12	inactive: -11.4%
CC(C)(C)c1ccc(COn2ccnc2)cc1	inactive: -2.4%
Cc1cc(C(=O)CN2C(=O)NC3(CCCCCC3)C2=O)c(C)n1C	inactive: -13.9%
Cc1cc(C(C)(C)C)oc1C(=O)O	inactive: 28%
O=C(/C=C/c1cccc([N+](=O)[O-])c1)NCCSCc1ccco1	inactive: 25.3%
O=C(CCS(=O)(=O)Cc1ccccc1)Nc1nnc(C(F)(F)F)s1	inactive: 9.99%
CC1(C)Oc2ccc3ccc(=O)oc3c2/C(=C/NNC(N)=S)C1=O	inactive: 8.67%
COc1ccc(C(=O)N[C@H](C(=O)Nc2ccc(OC)nc2)C(C)C)cc1	inactive: 10.7%
O=C(NC(=S)Nc1ccc(Br)cc1F)C1CCCCC1	inactive: -1.27%
CN(C)c1ccc(NC(=O)Nc2ccc3c(c2)c(=O)n(C)n3Cc2ccccc2)cc1	inactive: -6.18%
Cc1ccc2c(Cl)cc(Cl)c(OCC(=O)NC3CCS(=O)(=O)C3)c2n1 (stereo not drawn)	inactive: -2.78%
CCC(=O)N1CCN(c2ccc(NC(=O)c3ccc(C#N)cc3F)cc2Cl)CC1	inactive: 0.999%
CCCc1cc(CNC(=O)C2CCC(=O)N(Cc3ccccc3F)C2)on1 (stereo not drawn)	inactive: -4.06%
Cc1ccc(-n2nnnc2SCC(=O)Nc2ccccc2N2CCCCC2)cc1C	inactive: 20.8%
CCOc1ccccc1NC(=O)Cn1nnc(C(=O)Nc2ccccc2Cl)c1N	inactive: -2.2%
O=C(COc1ccccc1Cl)NCCNC(=O)c1ccncc1	inactive: -13.7%
CCCc1nc2ccc(NC(=O)c3cccs3)cc2c(=O)n1Cc1ccccc1Cl	inactive: 10.2%
CCc1cccc(CC)c1NC(=O)CNCc1cccs1	inactive: -11.7%

Structure (SMILES)	growth rescue (activation)
CN1C(=O)/C(=C/c2ccc(OCc3ccc(F)cc3)cc2)NC1=S	inactive: 13.7%
O=C(CSc1nnc(-c2ccncc2)n1Cc1ccco1)Nc1ccccc1F	inactive: -15.6%
Cc1cc(C)cc(NC(=O)C2C3C=CC4(O3)C2C(=O)N(CCCN2CCCCC2)C4C(=O)NC2CCCCC2)c1 (stereo not drawn)	inactive: 13.5%
O=C1CCCN1C(=O)CSc1nnnn1-c1cccc(F)c1	inactive: -1.63%
COc1ccc(OCC(=O)N/N=C(\C)CC(=O)Nc2ccc(OC)cc2[N+](=O)[O-])cc1	inactive: -4.54%
Cc1cc(C)n(-c2nnc(NCc3ccc(Cl)cc3)nn2)n1	inactive: 22.8%
O=C(NNC(=O)C1CCCCC1)c1ccco1	inactive: -6.9%
CCOC(=O)c1cc(NCc2cccs2)ccc1N1CCOCC1	inactive: 20.2%
CCC(=O)N1CCc2cc(Br)cc(S(=O)(=O)NCCN3CCCC3)c21	inactive: 2.31%
O=C(NCCCN1CCOCC1)C(=O)NCc1ccccc1Cl	inactive: 3.28%
O=C1c2ccccc2NC(c2cccc(O)c2)N1c1ccccc1 (stereo not drawn)	inactive: 6.43%
CSc1ccccc1C(=O)NCCCn1ccnc1	inactive: -4.64%
CCOC(=O)c1cc(-c2ccccc2)n(CC(=O)Nc2ccc(OC)cc2)c1C	inactive: 20%
Cc1cc(S(=O)(=O)NCc2cccnc2)ccc1F	inactive: 2.54%
Cc1cccc(N(CC(=O)N2CCN(C)CC2)S(=O)(=O)c2ccccc2)c1	inactive: -5.47%
CCCCCCCC(=O)N1c2ccccc2NC(=O)C1CC(=O)Nc1ccc(C(=O)O)cc1 (stereo not drawn)	inactive: -8.51%
CC(NC(=O)c1ccc(S(=O)(=O)N(C)C)cc1)c1ccc(-n2ccnc2)cc1 (stereo not drawn)	inactive: -6.41%
NC(Cc1ccc(C(F)(F)F)cc1)c1csc(NC(=O)Nc2ccccc2Cc2ccccc2)n1 (stereo not drawn)	inactive: 15.2%
CCCCOc1ccc(C(=O)N/C(=C/C=C/c2ccccc2)C(=O)NCCO)cc1	inactive: 2.01%
CCOC(=O)Cn1ccc(NC(=O)COc2ccc(F)cc2)n1	inactive: 9.55%

Reference: PubChem BioAssay AID1347073 (National Center for Advancing Translational Sciences (NCATS), 2019)
